The source of these data is PubChem BioAssay (NCI).

Several values for one entry are separate records, joined by “and”; a condition that tells them apart may be missing. Equal values may be shown once.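 Growth conditions: 96-well plates. Treatment: test compound, 48 hours, 5 concentrations. Analysis: linear interpolation between bracketing concentrations; unreached endpoints set to highest concentration. Here, GI50 denotes the concentration required for 50% inhibition of growth. Definition used: TGI = concentration required for complete inhibition of growth.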

The experiment deals with NCI-H322M lung. The experiment can be described thus: NCI-60 cell line screen, 48 h.
In turn, `O=C1CCC2(CCO1)OCCO2` displayed a TGI of over 100 µM. As for `O=C(Nc1ccc(F)cc1)c1ccc(NC2=C(Cl)C(=O)N(Cc3ccccc3)C2=O)cc1`, the GI50 was 13.7 µM and the TGI turned out to be 39.3 µM. With `Cc1ccc(C(=O)O)c(CC2Cc3c(C)cccc3C2=O)c1` (stereo not drawn), the TGI is over 100 µM. Still for that read-out and setting: next, `N=C1N(S(=O)(=O)c2ccccc2)[C@@H](Cc2ccccc2)[C@H](c2ccccc2)C1(c1ccccc1)c1ccccc1`: over 100 µM.

`NC(=S)N/N=C\c1ccc(OCc2cccc(COc3ccc(/C=N/NC(N)=S)cc3)n2)cc1` displayed a TGI of 57.1 µM. Turning to `Clc1ccc(Cc2nc3ccccc3nc2-c2cccc(Br)c2)cc1`, the TGI was 32.3 µM. Regarding `COc1ccccc1/C=C/[N+](=O)[O-]`, the GI50 is 2.35 µM and the TGI is 5.87 µM.

Regarding `CN(C)/N=C/c1cn(C)c(=O)n(C)c1=O`, the TGI is over 100 µM.

On to `CCC(=O)O[C@H]1CC[C@H]2[C@@H]3CC[C@H]4CC(=O)[C@H](C)C[C@]4(C)[C@H]3CC[C@]12C`, for which the GI50 was over 100 µM and the TGI was over 100 µM. For `N#Cc1nc(CCCCCN2C(=O)c3ccccc3C2=O)oc1N`, the TGI is over 100 µM.

Turning to `OCC1OC(n2cnc3cncnc32)C(O)C1O` (stereo not drawn), the TGI stood at 5.39 µM. Still for that read-out and setting: with `CCCCCCCCCCCCCCN` the figure was over 100 µM.

`CC1CC#CCOC(=O)CCCC1=O` (stereo not drawn) had a TGI of over 100 µM.

For `CC(=O)O[C@@H]1C[C@@]23C[C@@]24CC[C@H](OC2OCC(O)C(O)C2O)C(C)(C)[C@@H]4CC=C3[C@]2(C)C[C@@H]3OC4(C[C@@H](C)[C@@H]3[C@@]12C)OC(O)[C@@]1(C)O[C@@H]41` (stereo partly drawn), the TGI was over 100 µM. The same measure, in the same setting: with `COc1ccccc1/C=C1\CCC(CCN(C)C)(C2=CCCC2)C1=O` (stereo not drawn) the figure was 36.2 µM. On to `C[C@H](NC(=O)[C@@H]1CSSC[C@@H](NC(=O)c2nc3ccccc3cc2O)C(=O)NCC(=O)N1C)c1ccccc1`, for which the GI50 is 6.99 µM and the TGI was found to be 19.8 µM. As for `NCCCOCC(=O)O`, the TGI is over 100 µM. On the same count and under the same terms, next, `CS(=O)(=O)OCCN1CCN(C(=O)c2cccc3c(Nc4ccc(S(=O)(=O)N=C(N)N)cc4)c4ccccc4nc23)CC1`: over 100 µM. The same measure, in the same setting: next, `c1ccc(CCNCc2ccco2)nc1`: over 100 µM; `Cc1nc2c3c(ncn2n1)Oc1c(c(-c2ccccc2)nn1-c1ccccc1)C3c1ccc(Cl)cc1` (stereo not drawn): over 100 µM. Same read-out and setting: next, `C=CC1[C@H]2COC(C)(C)O[C@@H]2CC(=O)C1(C)C` (stereo partly drawn): over 100 µM.

`CC[N+]1(C)CCC(O)(/C=C/c2ccc(OC)cc2)C(C(=O)/C=C/c2ccc(OC)cc2)C1` (stereo not drawn) yielded a TGI of 35.1 µM. Still for that read-out and setting: with `Oc1cc(O)c(Oc2cccc(O)c2O)c(O)c1` the figure was over 100 µM; with `CCCNCCCC(NC(C)=O)C(=O)NCc1ccccc1` (stereo not drawn), over 100 µM.

Regarding `COc1ccc(Nc2ncc(Br)c(NCCCNC(=O)C3CCC3)n2)cc1`, the GI50 was 16.5 µM and the TGI is 51.5 µM. In turn, `Cc1cc(C)c(P2C(=C(O[Si](C(C)C)(C(C)C)C(C)C)C(C)(C)C)C2(c2ccccc2)c2ccccc2)c(C)c1` (stereo not drawn) came in with a TGI of over 100 µM. The molecule `CCOC(=O)/C(O)=C/c1cc(OC)cc(=O)o1` showed a TGI of over 100 µM.

For `COc1cc(CCN)c2c(c1OC)SSSSS2`, the GI50 is 1.49 µM and the TGI turned out to be 4.12 µM.

Consider `N/N=C1/C2CN3CCN(C2)CC1(c1ccc([N+](=O)[O-])cc1)C3`, for which the TGI was over 100 µM. With `C1C[OH+]CC[OH+]CCNCC[OH+]CC[OH+]CCN1.[Cl-].[Pt+4]`, the GI50 is over 100 µM and the TGI was over 100 µM. `CCCn1c(SC)nc(COC(=O)NC)c1COC(=O)NC` showed a TGI of over 100 µM.

With `CCCC(=O)Nc1cc(C(=O)N2C[C@@H]3C[C@]34C2=CC(=O)c2[nH]cc(C)c24)n(COC)c1`, the GI50 is 7.47 µM; the TGI is 34.8 µM and 63.9 µM. As for `O=c1[nH]c(=O)n([C@@H]2C[C@H](CO)[C@H](O)C2)cc1/C=C/Br`, the TGI is over 100 µM. For the molecule `Cc1ccc(/C(=N\N=C(N)N)c2ccccc2)cc1`, the GI50 was 0.521 µM and the TGI is 15.8 µM.
